Reference: PMC4336329 (PLoS ONE, 2015)
The campaign covered roughly 310,000 compounds. About 14,000 (4.5%) showed an effect of 50% or more. Effects have a minus sign here. The list shows a part of the results.

target: human ether-à-go-go-related gene (hERG) potassium channel (human, UniProt Q12809); assay: primary screen, population patch clamp on CHO cells stably expressing hERG
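Note: peak tail current of the secondary pulse compared with the same well before compound.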

Chain of human ether-à-go-go-related gene (hERG) potassium channel (Q12809 whole entry, looked up): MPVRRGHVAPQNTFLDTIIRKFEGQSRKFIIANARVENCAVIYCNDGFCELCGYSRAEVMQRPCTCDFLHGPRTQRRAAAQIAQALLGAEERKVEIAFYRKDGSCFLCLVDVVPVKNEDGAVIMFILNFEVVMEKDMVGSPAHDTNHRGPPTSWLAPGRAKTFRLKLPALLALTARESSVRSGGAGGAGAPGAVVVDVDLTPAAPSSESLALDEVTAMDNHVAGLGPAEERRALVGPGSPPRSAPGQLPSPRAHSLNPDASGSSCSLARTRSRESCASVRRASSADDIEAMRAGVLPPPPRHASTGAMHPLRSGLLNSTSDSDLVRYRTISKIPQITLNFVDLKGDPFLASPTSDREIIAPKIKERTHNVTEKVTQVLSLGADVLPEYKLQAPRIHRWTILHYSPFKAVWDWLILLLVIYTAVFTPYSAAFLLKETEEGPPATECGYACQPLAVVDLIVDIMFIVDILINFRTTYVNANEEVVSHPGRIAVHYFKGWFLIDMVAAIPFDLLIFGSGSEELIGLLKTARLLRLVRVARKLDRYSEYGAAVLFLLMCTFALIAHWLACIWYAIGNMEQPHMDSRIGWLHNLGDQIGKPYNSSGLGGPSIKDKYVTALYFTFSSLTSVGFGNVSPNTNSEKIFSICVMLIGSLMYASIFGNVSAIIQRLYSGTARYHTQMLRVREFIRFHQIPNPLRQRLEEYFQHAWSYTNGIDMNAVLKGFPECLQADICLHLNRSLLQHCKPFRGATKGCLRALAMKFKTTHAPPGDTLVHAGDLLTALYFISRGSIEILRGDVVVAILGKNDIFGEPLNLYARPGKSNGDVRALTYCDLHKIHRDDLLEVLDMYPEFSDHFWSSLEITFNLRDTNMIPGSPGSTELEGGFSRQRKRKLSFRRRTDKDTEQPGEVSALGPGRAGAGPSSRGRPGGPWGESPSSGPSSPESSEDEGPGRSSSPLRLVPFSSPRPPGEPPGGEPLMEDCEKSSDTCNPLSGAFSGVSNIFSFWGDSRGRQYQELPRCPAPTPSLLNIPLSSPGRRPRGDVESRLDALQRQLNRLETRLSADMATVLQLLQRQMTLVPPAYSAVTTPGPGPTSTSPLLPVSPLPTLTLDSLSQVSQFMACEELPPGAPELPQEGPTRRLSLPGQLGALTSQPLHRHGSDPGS

Row | SMILES | hERG current change (%, negative = inhibition) at 10uM [%]
1 | O=C1NC(=O)C(=Cc2ccc(OCCOc3ccc([N+](=O)[O-])cc3)cc2)C(=O)N1 | -28.2
2 | Cc1ccc(S(=O)(=O)N(C)C)cc1NC(=O)COC(=O)COc1ccccc1[N+](=O)[O-] | -14.1
3 | Cc1cc(NC(=O)CSCc2nc(-c3cccc(F)c3)oc2C)no1 | 0.986
4 | Cc1nc(NC(=S)NC(=O)c2cccs2)ccc1Br | 15.3
5 | Cc1cc(/C=C2/C(=O)NC(=O)N(c3ccccc3)C2=O)c(C)n1-c1ccc(F)cc1 | 2.05
6 | Cc1ccc(CNC(=O)C2CCN(S(=O)(=O)N3CCCCC3)CC2)cc1 | -11.4
7 | CCOC(=O)C1CCN(C(=O)COc2ccc(N(C)S(=O)(=O)c3ccc(C)cc3)cc2)CC1 | -57.7
8 | COc1cccc(CNCCOCCO)c1OC.Cl | 3.47
9 | Cc1ccc(O)c(NC(=O)c2ccc3c(c2)C(=O)N(Cc2cccnc2)C3=O)c1 | 1.97
10 | Cc1ccnc(SCCn2c(N3CCCCC3)nc3c2c(=O)n(C)c(=O)n3C)n1 | 9.39
11 | Cc1ccc(Oc2ncccc2CO)cc1 | 15.3
12 | Cc1ccc(NC(=O)c2ccc(N/N=C/c3cccc(O)c3)c([N+](=O)[O-])c2)cc1 | 15.8
13 | Cc1cc2n(c1)CCn1c(C)ccc1-2 | 24.5
14 | O=C(Nc1ccccc1)N(Cc1cccs1)C1CCCC1 | 0.732
15 | CC(=O)Nc1ccc(NC(=O)C(C)OC(=O)C2CCC2)cc1 (stereo not drawn) | -4.73
16 | Cc1nc(N(CCO)C2CCCCC2)c2nnn(Cc3ccccc3)c2n1 | 8.25
17 | CCc1c(C)nc2ncnn2c1N1CCCC(C(=O)Nc2ccc(NC(C)=O)cc2)C1 (stereo not drawn) | 14.2
18 | CCc1cc(=O)oc2cc(C)cc(OCC(=O)N3CCC(C(=O)O)(c4ccccc4)CC3)c12 | 5.65
19 | COc1cc(C2=Nc3ccc(Br)cc3C(c3ccccc3)N2CC(=O)NN)cc(OC)c1OC (stereo not drawn) | -32.6
20 | O=C(c1cccnc1)N1CCN(C(=O)c2cccs2)CC1 | 9.53
21 | O=C(O)c1ccc(CN(Cc2ccccc2)S(=O)(=O)c2ccc(Cl)cc2)cc1 | -9.67
22 | COc1ccc(S(=O)(=O)Nc2ccccc2C(=O)NCc2ccco2)cc1Br | -16.9

Row | SMILES | hERG current change (%, negative = inhibition) at 10uM [%]
23 | CCOc1cc(NC(=S)NCCCN2CCOCC2)c(OCC)cc1NC(=O)c1cccs1 | 10.8
24 | CC1=C(C(=O)OCc2ccccc2)C(c2ccc(C(C)(C)C)cc2)NC(=O)N1CCCCCC(=O)O (stereo not drawn) | -7.78
25 | CC(=O)Nc1ccc(NC(=O)COc2ncnc3ccccc23)cc1 | -7.63
26 | COc1ccc(N2CC(O)(c3ccc(OC(F)F)cc3)[N+]3=C2CCCC3)cc1.[Br-] (stereo not drawn) | -70
27 | C=C1CCN(C(C)C(=O)O)S(=O)(=O)c2ccccc21 (stereo not drawn) | 14.1
28 | COc1ccc(NC(=O)CCNS(=O)(=O)c2ccc(Br)s2)cc1 | -10.1
29 | CC(C)(C)C(=O)N1CCN(c2ncccc2C(F)(F)F)CC1 | 1.88
30 | COc1cccc(N2CCN(Cc3cccc(Cl)c3)CC2)c1 | -2.96
31 | CCOC(=O)c1c(/N=C/c2c(O)n(-c3ccccc3F)c(=S)[nH]c2=O)sc2c1CCCC2 | 14.5
32 | Cc1ccccc1NC(=O)c1ccc(C)c(S(=O)(=O)N2CCN(C)CC2)c1 | 12.3
33 | CNC(=O)O/N=C(\N)Cc1csc2ccccc12 | 11.6
34 | CCn1c(=O)cc(OCC(=O)NC2CCCCC2)c2ccccc21 | 15.4
35 | COCc1ccc(C(=O)Nc2ccccc2C(=O)NCc2cccnc2)cc1 | 6.5
36 | CCOC(=O)C1CCCCN1Cc1cn(C)nc1-c1ccccc1F (stereo not drawn) | 4.65
37 | Cc1cc(C(=O)COC(=O)C2CCN(C(=O)c3ccc(Cl)cc3)CC2)c(C)n1CC1CCCO1 (stereo not drawn) | -15.2
38 | CCOc1ccc(Cl)cc1CN1CCOCC1.Cl | -1.13
39 | CC(C)(O)C#Cc1ccc(CN2CCN(C3CCCCC3)C(CCO)C2)cc1 (stereo not drawn) | -11.8
40 | O=[N+]([O-])c1ccccc1S(=O)(=O)N1CCN(Cc2ccccc2)CC1 | -34.6
41 | O=C(NCc1ccc(Cl)cc1)C1CCN(S(=O)(=O)c2ccc(N3CCCC3=O)cc2)CC1 | 10
42 | COC(C/C=C\[C@H](O)COCc1ccccc1)OC | 14.7
43 | O=C(O)C(=O)O.c1ccc(CN2CCN(CCOCCOc3ccc4c(c3)CCC4)CC2)cc1 | -5.19
44 | CC(C)CCOc1ccc(C(CC(N)=O)C(=O)O)cc1 (stereo not drawn) | 22.6

Row | SMILES | hERG current change (%, negative = inhibition) at 10uM [%]
45 | O=C(CSc1nc(-c2ccccc2)cc(C(F)(F)F)n1)N1CCOCC1 | -11.9
46 | O=S(=O)(Nc1cccc(-c2ccc(N3CCCCCC3)nn2)c1)c1ccc(C(F)(F)F)cc1 | 18.6
47 | O=S(=O)(c1ccc(Cl)c(F)c1)N1CCC(c2nc(-c3ccncc3)no2)CC1 | -29.4
48 | COc1ccc(C(C)=O)cc1COc1cccc2c1OC(C)(C)C2 | -2.38
49 | O=C(NC(=S)NCc1ccccc1)c1ccc(Br)cc1 | 17.3
50 | Cc1cc(C)n2ncc(/C(N)=N/OC(=O)Nc3ccccc3)c2n1 | -14.7
51 | CCOc1ccccc1NC(=O)CCC(=O)Nc1ccc2nc(N3CCN(C)CC3)cc(C)c2c1 | 3.51
52 | Cc1cccc(-n2ncc3c2CCCC3NC(=O)C2CCOCC2)c1C (stereo not drawn) | 6.59
53 | CC(C)CN(C(=O)COC(=O)COc1ccc2ccccc2c1)c1c(N)n(Cc2ccccc2)c(=O)[nH]c1=O | -5.49
54 | CC1CN(CCOCCSc2ccc(Cl)cc2)CC(C)O1.O=C(O)C(=O)O (stereo not drawn) | -23.3
55 | CC(C(=O)Nc1sccc1C(N)=O)N1C(=O)C2CC=CCC2C1=O (stereo not drawn) | -2.11
56 | COc1ccc(-c2ccc(SCC(=O)N3CCOCC3)nn2)cc1 | -5.76
57 | COc1cccc(N2CC(NS(=O)(=O)c3ccc4ccccc4c3)CC2=O)c1 (stereo not drawn) | -4.12
58 | Cn1c(=O)c2c(nc(NC3CCCCC3)n2Cc2ccccc2)n(C)c1=O | 14.2
59 | NC(=O)C1CCN(C(=O)CN(C2CCCCC2)S(=O)(=O)c2ccc(F)cc2)CC1 | -13.4
60 | Cc1ccc(N2CC(C(=O)NC(C)CCc3ccccc3)CC2=O)cc1 (stereo not drawn) | -38.9
61 | O=C(NCc1ccccn1)c1cn(Cc2ccccc2)nn1 | 3.51
62 | Cc1cccc(C(=O)NNC(=O)c2ccccc2C)c1 | -5.22
63 | O=C(NCc1ccccn1)c1ccc(NS(=O)(=O)c2cccc(Cl)c2)cc1 | 7.73
64 | Cc1ccc(C(=O)OCC(=O)NC2CCCCC2)s1 | 20.9
65 | Cc1ccc(C)c(NC(=O)COC(=O)c2cccc(S(=O)(=O)N3CCCCC3)c2)c1 | 14.6
66 | Cc1cc(C)c2c(C)nn(-c3ccccc3)c2n1 | 11.3

Row | SMILES | hERG current change (%, negative = inhibition) at 10uM [%]
67 | COc1cc(C(=O)CCN2CCC(c3ccccc3)C2)cc(OC)c1OC.Cl (stereo not drawn) | -31.8
68 | O=C(c1cc2ccccc2oc1=O)N(Cc1ccco1)C1CCS(=O)(=O)C1 (stereo not drawn) | -2.57
69 | CCc1ccc(NC(=O)C2CCN(c3ncnc4c3nc3n4CCCCC3)CC2)cc1 | -6.35
70 | O=C1c2ccccc2C(=O)c2c1cccc2N1CCN(C/C=C/c2ccccc2)CC1 | -7.23
71 | CC1CCC(NC(=O)C2COc3ccccc3O2)CC1 (stereo not drawn) | 9.33
72 | COc1ccc(-c2nn(C)c(=O)c3ccccc23)cc1CNC(=O)c1ccco1 | -33.9
73 | Cc1nnc(NC(=O)C2CCCN(S(=O)(=O)Cc3ccccc3)C2)s1 (stereo not drawn) | -2.64
74 | CCN1CCN(Cc2cc(C(C)(C)C)c(O)c(C(C)(C)C)c2)CC1 | -26.5
75 | O=S(=O)(NCc1ccc2c(c1)OCO2)c1cccc(F)c1 | -6.14
76 | Cc1ccc(S(=O)(=O)N2CCCN(C)c3nc4ccccc4nc32)cc1 | -5.12
77 | Cc1ccccc1NC(=O)CCN1C(=O)CSC1=O | 6.58
78 | O=C(NCc1ccccc1)C1CCCN(C(=O)NCc2ccccc2)C1 (stereo not drawn) | 0.717
79 | Cc1cc(OCc2nn[nH]n2)c2c3c(c(=O)oc2c1)CCC3 | 3.12
80 | O=C(CCC(=O)OCCCC(F)(F)C(F)(F)F)Nc1ccc(Cl)cc1Cl | 4.85
81 | Cc1nonc1NC(=O)CSc1ccccn1 | 6.15
82 | Cc1cc(Cl)cc(C)c1OCC(=O)O | 18.8
83 | COc1ccccc1C(=O)N/N=C(\C)c1ccc(NC(=O)C2CC2)cc1 | -3.62
84 | Cc1ccc(-c2nc(CS(=O)CC(=O)NCc3ccc4c(c3)OCO4)c(C)o2)cc1 (stereo not drawn) | -33.1
85 | CCOC(=O)N1CCN(Cc2nc3cc(NC(C)=O)ccc3n2CC)CC1 | 14.9
86 | CN(C)c1ccc(NC(=O)c2ccc(Cn3cc([N+](=O)[O-])cn3)cc2)cc1 | -23
87 | O=C(NCc1nnc(SCC(=O)N2CCOCC2)o1)c1cccs1 | 0.145
